# Laboratory results: the supplement of paper PMC10037445
# In all, about 2,900 compounds were measured (“IRF Lucia reporter activity, fold change vs agonist alone”: median about 0.9, highest 2% from about 2.8 on). Some of the results follow.
# Key:
# RAW-Dual [1] = test: IRF Lucia reporter activity, fold change vs agonist alone; cytotoxicity flag (confluency mask): not cytotoxic; higher = enhanced IRF activity
# Procedure, shortened: (§1)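 Supernatant from RAW-Dual macrophages was read after 20 hours for IRF by QuantiLuc luminescence and for NF-κB by QuantiBlue absorbance at 620 nm. The cells (50,000 cells/well in DMEM, 384-well plates, 37 °C, 5% CO2) had received 50 nL of library stock by pin tool and, 1 h later, a PRR agonist. Reporter activity is expressed relative to agonist-alone wells as fold change, and wells were flagged cytotoxic if IncuCyte confluency was under 70% of agonist controls in both mask sets.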
# RAW-Dual [2] = test: IRF Lucia reporter activity, fold change vs agonist alone; higher = enhanced IRF activity; conditions: agonist: MPLA (TLR4) […]
# Procedure, shortened: as §1
# RAW-Dual [3] = test: IRF Lucia reporter activity, fold change vs agonist alone; cytotoxicity flag (confluency mask): cytotoxic (confluency <70% of control); higher = enhanced IRF activity
# Procedure, shortened: as §1
# [4] = agonist: 3'3'-cGAMP (STING) 10 ug/mL
# [5] = library stock concentration (final ~1000-fold dilution): 10 mM, cytotoxicity flag (confluency mask): not cytotoxic
# [6] = library stock concentration (final ~1000-fold dilution): 10 mM, cytotoxicity flag (confluency mask): cytotoxic (confluency <70% of control)
compound,measurement,setting,value
FC(F)(F)Oc1ccc2[nH]c(-c3ccc(OCCOCCOc4ccc(-c5nc6cc(OC(F)(F)F)ccc6[nH]5)nc4)cn3)nc2c1 (library stock concentration (final ~1000-fold dilution): 10 mM),IRF Lucia reporter activity,RAW-Dual [1]; [4],0.7
same,IRF Lucia reporter activity,RAW-Dual [1]; agonist: LPS (TLR4) 0.1 ug/mL,1.15
CCN(CC)C(=O)C1(c2ccccc2)CC1CN.Cl (stereo not drawn),IRF Lucia reporter activity,RAW-Dual [2]; [5],0.971
CCN(CC)C(=O)C1(c2ccccc2)CC1CN.Cl (stereo not drawn) (library stock concentration (final ~1000-fold dilution): 10 mM),IRF Lucia reporter activity,RAW-Dual [1]; [4],1.01
same,IRF Lucia reporter activity,RAW-Dual [1]; agonist: LPS (TLR4) 0.1 ug/mL,0.762
CC(C)(O)c1ccccc1CCC(SCC1(CC(=O)O)CC1)c1cccc(/C=C/c2ccc3ccc(Cl)cc3n2)c1 (stereo not drawn) (library stock concentration (final ~1000-fold dilution): 10 mM),IRF Lucia reporter activity,RAW-Dual [3]; [4],0.492
same,IRF Lucia reporter activity,RAW-Dual [3]; agonist: LPS (TLR4) 0.1 ug/mL,1.52
CC(C)(O)c1ccccc1CCC(SCC1(CC(=O)O)CC1)c1cccc(/C=C/c2ccc3ccc(Cl)cc3n2)c1 (stereo not drawn),IRF Lucia reporter activity,RAW-Dual [2]; [6],0.73
CC(C)COCC(CN(Cc1ccccc1)c1ccccc1)N1CCCC1.Cl.O (stereo not drawn) (library stock concentration (final ~1000-fold dilution): 10 mM),IRF Lucia reporter activity,RAW-Dual [3]; [4],0.141
same,IRF Lucia reporter activity,RAW-Dual [3]; agonist: LPS (TLR4) 0.1 ug/mL,0.96
CNCCCN1c2ccccc2CCc2ccccc21.Cl (library stock concentration (final ~1000-fold dilution): 10 mM),IRF Lucia reporter activity,RAW-Dual [3]; [4],0.427
same,IRF Lucia reporter activity,RAW-Dual [3]; agonist: LPS (TLR4) 0.1 ug/mL,1.52
CNCCCN1c2ccccc2CCc2ccccc21.Cl,IRF Lucia reporter activity,RAW-Dual [2]; [6],1.27
O=C(O)CCn1c2c(c3ccccc31)CC(NS(=O)(=O)c1ccc(F)cc1)CC2 (stereo not drawn) (library stock concentration (final ~1000-fold dilution): 10 mM),IRF Lucia reporter activity,RAW-Dual [1]; [4],1.01
same,IRF Lucia reporter activity,RAW-Dual [1]; agonist: LPS (TLR4) 0.1 ug/mL,1.38
O=C(O)CCn1c2c(c3ccccc31)CC(NS(=O)(=O)c1ccc(F)cc1)CC2 (stereo not drawn),IRF Lucia reporter activity,RAW-Dual [2]; [5],1.09
O=C(Nc1ccc2[nH]nc(-c3ccc4[nH]ccc4c3)c2c1)c1c(Cl)cccc1Cl (library stock concentration (final ~1000-fold dilution): 10 mM),IRF Lucia reporter activity,RAW-Dual [3]; [4],0.0218
same,IRF Lucia reporter activity,RAW-Dual [3]; agonist: LPS (TLR4) 0.1 ug/mL,0.0379
COc1ccc2c(c1)C1(CC1c1ccc3c(/C=C/c4ccc(CN5CC(C)OC(C)C5)cc4)n[nH]c3c1)C(=O)N2 (stereo not drawn) (library stock concentration (final ~1000-fold dilution): 10 mM),IRF Lucia reporter activity,RAW-Dual [1]; [4],0.514
same,IRF Lucia reporter activity,RAW-Dual [1]; agonist: LPS (TLR4) 0.1 ug/mL,1.21
COc1ccc2c(c1)C1(CC1c1ccc3c(/C=C/c4ccc(CN5CC(C)OC(C)C5)cc4)n[nH]c3c1)C(=O)N2 (stereo not drawn),IRF Lucia reporter activity,RAW-Dual [2]; [5],1.06
CC(C)CN(CC(O)C(Cc1ccccc1)NC(=O)OC1COC2OCCC12)S(=O)(=O)c1ccc(N)cc1 (stereo not drawn) (library stock concentration (final ~1000-fold dilution): 10 mM),IRF Lucia reporter activity,RAW-Dual [1]; [4],0.959
same,IRF Lucia reporter activity,RAW-Dual [1]; agonist: LPS (TLR4) 0.1 ug/mL,1.39
CC(C)CN(CC(O)C(Cc1ccccc1)NC(=O)OC1COC2OCCC12)S(=O)(=O)c1ccc(N)cc1 (stereo not drawn),IRF Lucia reporter activity,RAW-Dual [2]; [5],1.14
OCCc1ccc(O)cc1 (library stock concentration (final ~1000-fold dilution): 10 mM),IRF Lucia reporter activity,RAW-Dual [1]; [4],1.19
same,IRF Lucia reporter activity,RAW-Dual [1]; agonist: LPS (TLR4) 0.1 ug/mL,1.29
N=C(N)NCCCC1NC(=O)C(CCCCN)NC(=O)C(Cc2ccccc2)NC(=O)C(CC(=O)O)NC(=O)CNC1=O.O=C(O)C(F)(F)F (stereo not drawn) (library stock concentration (final ~1000-fold dilution): 10 mM),IRF Lucia reporter activity,RAW-Dual [1]; [4],1.28
same,IRF Lucia reporter activity,RAW-Dual [1]; agonist: LPS (TLR4) 0.1 ug/mL,1.07
Cl.N=C(N)c1ccccc1 (library stock concentration (final ~1000-fold dilution): 10 mM),IRF Lucia reporter activity,RAW-Dual [1]; [4],1.02
same,IRF Lucia reporter activity,RAW-Dual [1]; agonist: LPS (TLR4) 0.1 ug/mL,1.53
Cl.N=C(N)c1ccccc1,IRF Lucia reporter activity,RAW-Dual [2]; [5],1.11
O=C1C(Cc2ccc(O)cc2)N2C(=O)CCN(C(=O)NCc3ccccc3)C2CN1Cc1cccc2ccccc12 (stereo not drawn) (library stock concentration (final ~1000-fold dilution): 10 mM),IRF Lucia reporter activity,RAW-Dual [1]; [4],0.604
same,IRF Lucia reporter activity,RAW-Dual [1]; agonist: LPS (TLR4) 0.1 ug/mL,0.762
O=C1C(Cc2ccc(O)cc2)N2C(=O)CCN(C(=O)NCc3ccccc3)C2CN1Cc1cccc2ccccc12 (stereo not drawn),IRF Lucia reporter activity,RAW-Dual [2]; [5],0.779
CCN(c1cc(-c2ccc(CN3CCOCC3)cc2)cc(C(=O)NCc2c(C)cc(C)[nH]c2=O)c1C)C1CCOCC1,IRF Lucia reporter activity,"RAW-Dual [2]; library stock concentration (final ~1000-fold dilution): 2 mM, cytotoxicity flag (confluency mask): not cytotoxic",0.949
CCN(c1cc(-c2ccc(CN3CCOCC3)cc2)cc(C(=O)NCc2c(C)cc(C)[nH]c2=O)c1C)C1CCOCC1 (library stock concentration (final ~1000-fold dilution): 2 mM),IRF Lucia reporter activity,RAW-Dual [1]; [4],0.921
same,IRF Lucia reporter activity,RAW-Dual [1]; agonist: LPS (TLR4) 0.1 ug/mL,0.841
NC(N)=O (library stock concentration (final ~1000-fold dilution): 10 mM),IRF Lucia reporter activity,RAW-Dual [1]; [4],0.991
same,IRF Lucia reporter activity,RAW-Dual [1]; agonist: LPS (TLR4) 0.1 ug/mL,1.21
NC(N)=O,IRF Lucia reporter activity,RAW-Dual [2]; [5],1.05
CC(C)CCNC(=O)C(CC(C)C)NC(=O)C1OC1C(=O)O (stereo not drawn),IRF Lucia reporter activity,RAW-Dual [2]; [5],1.08
CC(C)CCNC(=O)C(CC(C)C)NC(=O)C1OC1C(=O)O (stereo not drawn) (library stock concentration (final ~1000-fold dilution): 10 mM),IRF Lucia reporter activity,RAW-Dual [1]; [4],1.19
same,IRF Lucia reporter activity,RAW-Dual [1]; agonist: LPS (TLR4) 0.1 ug/mL,0.945
Cl.NC(CO)C(=O)NNCc1ccc(O)c(O)c1O (stereo not drawn),IRF Lucia reporter activity,RAW-Dual [2]; [5],0.97
Cl.NC(CO)C(=O)NNCc1ccc(O)c(O)c1O (stereo not drawn) (library stock concentration (final ~1000-fold dilution): 10 mM),IRF Lucia reporter activity,RAW-Dual [1]; [4],1.06
same,IRF Lucia reporter activity,RAW-Dual [1]; agonist: LPS (TLR4) 0.1 ug/mL,0.937
O=C(NCC(=O)N1CCCC1)Nc1ccc2cnccc2c1 (library stock concentration (final ~1000-fold dilution): 10 mM),IRF Lucia reporter activity,RAW-Dual [1]; [4],0.91
same,IRF Lucia reporter activity,RAW-Dual [1]; agonist: LPS (TLR4) 0.1 ug/mL,0.742
CCN(C(=O)c1c(O)n(C)c2cccc(Cl)c2c1=O)c1ccccc1 (library stock concentration (final ~1000-fold dilution): 10 mM),IRF Lucia reporter activity,RAW-Dual [1]; [4],0.934
same,IRF Lucia reporter activity,RAW-Dual [1]; agonist: LPS (TLR4) 0.1 ug/mL,0.798
CS(=O)(=O)Nc1ccc([N+](=O)[O-])cc1OC1CCCCC1 (library stock concentration (final ~1000-fold dilution): 10 mM),IRF Lucia reporter activity,RAW-Dual [1]; [4],1.2
same,IRF Lucia reporter activity,RAW-Dual [1]; agonist: LPS (TLR4) 0.1 ug/mL,1.21
Nc1c(Br)cc(Br)cc1CNC1CCC(O)CC1 (stereo not drawn) (library stock concentration (final ~1000-fold dilution): 10 mM),IRF Lucia reporter activity,RAW-Dual [1]; [4],0.921
same,IRF Lucia reporter activity,RAW-Dual [1]; agonist: LPS (TLR4) 0.1 ug/mL,0.884
Nc1c(Br)cc(Br)cc1CNC1CCC(O)CC1 (stereo not drawn),IRF Lucia reporter activity,RAW-Dual [2]; [5],0.85
CC(N)C12CC3CC(CC(C3)C1)C2 (stereo not drawn) (library stock concentration (final ~1000-fold dilution): 10 mM),IRF Lucia reporter activity,RAW-Dual [1]; [4],1.04
same,IRF Lucia reporter activity,RAW-Dual [1]; agonist: LPS (TLR4) 0.1 ug/mL,0.96
CC(N)C12CC3CC(CC(C3)C1)C2 (stereo not drawn),IRF Lucia reporter activity,RAW-Dual [2]; [5],0.919
